# Data from the supplement of paper PMC3334620.
# Whole data set: some 33,000 sequences, median “E-score (-0.5 to 0.5)” near -0.016, cut for the highest 2% near 0.32. This is one part of the list.
# Target: T1, Stp1 (UniProt B3LFK1)
# T1 sequence: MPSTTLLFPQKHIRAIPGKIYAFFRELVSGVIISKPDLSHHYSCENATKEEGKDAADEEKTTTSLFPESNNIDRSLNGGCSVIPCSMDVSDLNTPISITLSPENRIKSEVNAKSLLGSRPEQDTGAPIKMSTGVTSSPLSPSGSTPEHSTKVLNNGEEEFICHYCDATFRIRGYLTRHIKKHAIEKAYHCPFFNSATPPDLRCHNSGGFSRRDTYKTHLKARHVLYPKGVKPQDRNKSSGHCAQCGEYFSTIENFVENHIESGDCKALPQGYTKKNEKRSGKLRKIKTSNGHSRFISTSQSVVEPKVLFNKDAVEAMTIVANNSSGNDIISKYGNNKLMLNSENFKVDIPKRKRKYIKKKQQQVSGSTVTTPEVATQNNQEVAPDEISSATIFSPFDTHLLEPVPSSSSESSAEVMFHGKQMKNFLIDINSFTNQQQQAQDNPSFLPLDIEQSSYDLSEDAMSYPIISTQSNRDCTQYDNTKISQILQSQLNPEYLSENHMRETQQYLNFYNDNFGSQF
# Test: PBM E-score (8-mer binding enrichment) (E-score (-0.5 to 0.5)); higher = stronger / more preferred TF binding; most listed sequences are background and not binding sites
# Details: protein concentration: 200 nM; construct: GST-full length
# In short: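 Yeast transcription factors, full-length or as DNA-binding domains, were expressed with a GST tag using PURExpress in vitro transcription/translation. At about 100-200 nM they were applied to universal all-10-mer Agilent arrays, double-stranded by primer extension on fresh or once-stripped slides. Fluorescent anti-GST detected bound protein, and masliner normalised the scans. E-scores for ungapped eight-base words, pooled with reverse complements, came from the Universal PBM Analysis Suite.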
row,Sequence,PBM E-score
1,CTCATTAC,0.148
2,TCCGCCAA,-0.136
3,ACTTGCTG,0.0559
4,ACGGCCTC,0.263
5,GGTCACAC,-0.18
6,ACGACTTA,-0.179
7,GACTGCAC,-0.233
8,CTGAAGAC,-0.0623
9,CCGAGTAA,0.0365
10,CTACCCTA,-0.166
11,TACTACGA,0.104
12,TAACCCGA,-0.19
13,CCAGACAA,-0.0888
14,TAGGGTGA,-0.293
15,TCCTCTAA,-0.222
16,CGTCTCCA,0.224
17,ATCGGGAC,-0.198
18,ACAAATAC,0.274
19,CAGCACCG,-0.117
20,AAGGGATC,-0.178
21,ATCCCGTA,0.0591
22,CGGAGATA,0.0846
23,AGGAGCTA,-0.126
24,AGTCCAGA,-0.175
25,ACTAGTCG,-0.187

row,Sequence,PBM E-score
1,CCCCTTAG,-0.278
2,ACTCTAAG,-0.221
3,CGATTGCA,0.103
4,CATCGAAG,0.157
5,AATTCTGG,-0.134
6,ATTCGTGC,0.31
7,CTGTCCTA,-0.199
8,AACAACCC,-0.0849
9,GATTCGTA,0.0649
10,TCTCCAAA,0.0398
11,ACTCATTC,0.0223
12,GTATATTA,0.159
13,AGGTCTAC,-0.258
14,CGCTATCC,0.0404
15,AAGTGCTG,-0.0243
16,AAAGGCTT,-0.0867
17,GATTCTTA,0.154
18,AATGTTGA,-0.154
19,TGATAGAA,-0.198
20,AGGAGTAA,0.0799
21,CTTCCACC,-0.2
22,CCGGTACG,-0.209
23,GAGCTTAA,-0.234
24,CGAATAGA,-0.095
25,CCTTGGCG,-0.174

row,Sequence,PBM E-score
1,ACCAGTTC,-0.0513
2,CATAAGCG,0.00279
3,ACTTATTA,0.00052
4,GCACTCGA,-0.0637
5,CGTGTGAC,0.05
6,GCCATCCA,-0.0691
7,GTCCGTAA,-0.0628
8,ATCTAGTA,0.151
9,CCGGAGAA,-0.213
10,ATGCTATG,-0.0201
11,GCTGTTCC,-0.221
12,ATCAGGGA,-0.201
13,AAGTTGGC,-0.0139
14,AAAGTGAG,0.012
15,ATAGCGAC,-0.174
16,ACATGTCT,-0.105
17,ATATACGA,-0.0481
18,ATTCGTCC,0.227
19,CGCAGCGC,0.239
20,ACGAAACT,0.126
21,AGAGGGCA,0.055
22,GCGCCCAC,0.192
23,CGCATTCA,0.123
24,GTCTCTTA,0.0525
25,CTAGTGGA,-0.261

row,Sequence,PBM E-score
1,AATGCTAC,0.129
2,AACCTAGA,-0.0605
3,GAACCGCA,0.166
4,ATGACTGA,-0.164
5,AAGCAACG,0.134
6,ATGTAGCC,-0.153
7,ACATTGGA,-0.205
8,ACGAAGCT,-0.0462
9,AGAGCCGC,0.44
10,ATTTAATG,0.225
11,CGCGCCAA,0.132
12,TGAAGGAA,0.0407
13,ATATCACC,0.0601
14,ACGGGTCG,0.163
15,CCGCAACA,0.197
16,CGCATCAG,0.0357
17,CCGTTCTA,0.237
18,AGCGCTGA,-0.0259
19,CATGGCAG,0.128
20,ATTCTTGA,0.0236
21,ATTGCCCG,-0.0444
22,GCTGATCA,-0.118
23,TATTGAAA,0.178
24,GGTCCTAC,-0.113
25,ATGATCAA,0.121

row,Sequence,PBM E-score
1,CCGAGCCG,0.334
2,ATCAACCA,-0.0725
3,CCGGTTAC,-0.0144
4,AATGGGCG,-0.138
5,AAGAGTTA,-0.148
6,CGAGCCTA,-0.0212
7,AAACAGTA,-0.0184
8,GCATATGA,0.171
9,GACACAAC,0.0796
10,GTCACCAA,-0.2
11,AATGGGGA,-0.238
12,TGGGGGAA,-0.386
13,ACGCGCTG,0.119
14,CCACGGTA,-0.0638
15,ACCGATCC,-0.157
16,AAACGTTT,0.0331
17,CTGCACGA,-0.152
18,GCCTCCAC,-0.182
19,AGCTCGTG,-0.0692
20,CATACCGC,0.0691
21,CCTTTAGC,-0.0318
22,ACCCGTCC,-0.207
23,CTGTGCCC,0.242
24,AGTGTTCA,0.0294
25,GAGGAGAC,-0.143

row,Sequence,PBM E-score
1,CCTCGATC,-0.18
2,CGATACGC,0.0924
3,TCCGGGCA,-0.149
4,CCGAGTTC,0.0434
5,TCCTAGAA,-0.0129
6,ATAGGGCC,-0.0431
7,AAGCGCGC,0.226
8,ACGTGCTG,-0.0413
9,GAAACCAA,-0.0238
10,AGGGTTAT,-0.0286
11,GCTATGTA,-0.0174
12,CCATGAGA,-0.118
13,CAAAATGC,0.122
14,AGCCTGTC,-0.054
15,AATATGGC,0.121
16,AGTGCACA,-0.0587
17,CTAACGCC,0.215
18,TACTTAGA,-0.022
19,ATTCTACA,0.221
20,AGAGGGCC,-0.233
21,AAATTGGG,-0.00017
22,ACCAGGCA,-0.231
23,ACATTGGG,-0.255
24,GTGGGATA,-0.0825
25,ATCAGTGG,-0.124

row,Sequence,PBM E-score
1,CCAAGCCC,-0.241
2,CAGTAACA,-0.139
3,GTTGCGGA,0.00249
4,TTGATCAA,0.149
5,ACGGACGA,0.0876
6,CCGCAGTC,0.0955
7,CCTTACAG,0.0881
8,ACGAATCC,0.102
9,TACAACCA,0.151
10,CTTTTATA,0.0395
11,AGCTCTCC,-0.242
12,AGAGAGCC,0.148
13,TAACCTGA,-0.131
14,ATGTTTTA,0.132
15,AGCATCTG,-0.0786
16,CAATTTTC,0.0158
17,AGATCCTC,-0.251
18,CTATCGTA,0.0458
19,ACCATGAG,-0.195
20,ACACCACG,0.0166
21,CAATGAAC,0.0426
22,CCTTATCC,-0.0848
